Experimental data from the supplement of paper PMC11417369.
± gives the standard deviation of the averaged measurements. The list shows a part of the results.

These sequences were tested on PfAP2-G AP2 domain (GST-tagged) (assay: gcPBM binding intensity (ln(normalized median fluorescence intensity)); higher = stronger DNA binding).
How it was run: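 Using an Agilent 4 × 180k array, primer-extended double-stranded 36-bp intergenic genomic probes and negative controls were exposed for 1 h to GST-fused P. falciparum DNA-binding domains expressed in E. coli. Binding was carried out in 1× PBS with 1% milk, 0.2 mg/ml BSA, 0.5% salmon testes DNA and 0.03% Triton X-100, and protein was detected with Alexa488 anti-GST antibody and a 488 nm scan. Binding intensity is the highest Masliner-normalised natural-log median intensity across replicate spots of either probe orientation.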

Point of comparison: “GGATATTATATAAAGTGTACAAGACAAATATATACA [XGTACX_site8173]”, “gcPBM binding intensity (ln)” value 11.1 ± 0.69. Against it:
- TTTTAAGGTGTGAAGGTGCAAAAAGGTAAATAGGAA — within error, 10.5 ± 0.35
- TCGTGTGTAATATTATATATATATATATAATATATA [TGCATGCA_negctrl_site289] — lower, 10.1 ± 0.23
- AAAAAAAAAAAAGGCACACAAACATATGTAGACATA [CACACA_site2284] — lower, 10.1 ± 0.042
- TCTTTTATATTGTAGAGTACATATTTTCAATATATA [XGTACX_site5586] — within error, 11.3 ± 0.82
- TTCTTTTATAAAAGTAGTACAATTATATTGTAATTA [XGTACX_site2855] — within error, 11.5 ± 0.94
- ATCATAAATTATTATACACACAATACGTGACCTATT [CACACA_site1906] — within error, 10.5 ± 0.35
- AAATTGTCAAAACACGCACACACATATACATAATAA [CACACA_site1743] — within error, 10.5 ± 0.45
- GTGATACGCTATAGGACACACGCTTAATAATTATAA [CACACA_site1694] — within error, 10.7 ± 0.57
- AAATTAACAAACTGTAGTACTAACAATATATACAAA [XGTACX_site1772] — within error, 11.2 ± 0.76
- ATATATCAAGGGAGTGAATGTTATGCATATGAATAT [TGCATGCA_negctrl_site573] — lower, 9.845 ± 0.021
- AATAAATTAAATAAAAATGTTTAACATAAAATATGA [GTGCAC_negctrl_site373] — lower, 9.725 ± 0.078
- AAAAAAAAAAAACACACACACAAAATAAACAAACAA [CACACA_site2721] — lower, 10.06 ± 0.071
- ATTATAATTATCAAGGTGCGTGTATTATAATAAATA [GTGCAC_site9917] — lower, 10.2 ± 0.19
- TAATATAATAATAATTGTACTTTTCATAGTGTAATT [XGTACX_site8152] — within error, 11.2 ± 0.74
- ATATATTTTTTTTTTATTTTATTATTATAATTTATC [XGTACX_negctrl_site16] — lower, 9.56 ± 0.042
- TAATATTATTTTTCAGTGCAATATAACCTTAGAATT [GTGCAC_site9417] — lower, 9.96 ± 0.18
- TTATAATCAATGAATACACACATATATTTAATTAAT [CACACA_site3613] — lower, 10 ± 0.25
- AATTTTCCATAGATTGTGCACAAATTTTTATTTTGT — within error, 10.46 ± 0.064
- AAGAAAAAGACTTCATGAAAAAGAATTTTTTTAATT [TGCATGCA_negctrl_site473] — lower, 9.61 ± 0.42
- TATTCAAAAATATAAACAATGAAACAGTATAATATG [CACACA_negctrl_site1482] — lower, 9.97 ± 0.071
- TATAGTTCTTCTATTTGTACATATATTATTATTTAA [XGTACX_site895] — within error, 10.9 ± 0.3
- ATTTTATTTTTTTGAAGTACGAATTCCGAGAAGAAA [XGTACX_site43] — within error, 11 ± 0.71
- AAACAAAACAACTAAGTGCATAAAAATAAAATAAAT — lower, 10 ± 0.11
- TATGTGTGAAAAAAATGTACATATATATAAATTATA [XGTACX_site7202] — within error, 11.2 ± 0.67
- ATATATATATATAATAGTACATATATTTTGAAAGAT [XGTACX_site5800] — within error, 10.9 ± 0.58
- AACTGTAAAAAATATAAACACACATAGAAATATATA [CACACA_site8002] — lower, 10.1 ± 0.26
- GATATATTTTATATATGTACATACAATGGTAAATAT [XGTACX_site2759] — within error, 11.2 ± 0.73
- TTTTTTTTCTTTTTTTGTACATAATAATATATAAAT [XGTACX_site6778] — within error, 10.9 ± 0.67
- AATTAAAAAAGTAATTAACACACAATAATGTAATGC [CACACA_site9388] — lower, 10.02 ± 0.049
- GTTCTGTAAATACGTGCACACACAAATCACAAATGT [CACACA_site7999] — within error, 10.8 ± 0.52
- AAAGAAATGAAATATACACACATACATATATACATA [CACACA_site9335] — lower, 9.74 ± 0.16
- TAGTTTCAAGTAGGACGTACATATAAAAGGATTTTT [XGTACX_site7136] — within error, 11.4 ± 0.81
- TATATATATATAATTGTGCACATAATTTTAAACCAA — within error, 10.6 ± 0.38
- TATTCTTACAAAAGTAGTACAATCATTCATATTTTT [XGTACX_site631] — within error, 11.5 ± 0.93
- AAAAATGAAAAATGAAAAATGAAAAATGAAAAATAA [CACACA_negctrl_site695] — lower, 9.645 ± 0.021
- TATCTCATAGTATACACACACACACGCGCACATATA [CACACA_site6917] — within error, 10.6 ± 0.23
- TGTATATATTATATTTGTACATATAAAACTATATGT [XGTACX_site4782] — within error, 10.8 ± 0.46
- TCACATACATTACTTACACACCATATTGATATATAC [CACACA_site6353] — lower, 10.13 ± 0.035
- TTAAATATATGTAATACGCACACTTAATATTTTGAG [CACACA_site4170] — within error, 10.4 ± 0.28
- AAAAAAAAAAAAAAAACATGCAATAAAGTGTGCGTA [TGCATGCA_site982] — lower, 10.16 ± 0.057
- TTTTGGTGGGTTACAAGTACTCAAAATGGATTGTTA [XGTACX_site1951] — within error, 11.4 ± 0.83
- TTTCGAAAAACAACAAGAAAAAAAAAAAAAAAAAAA [XGTACX_negctrl_site449] — lower, 9.8 ± 0.26
- AAACAAAAAAATTGAAATAAAATGAAGTAAATGAAC [TGCATGCA_negctrl_site129] — lower, 10.1 ± 0.049
- ACATGTCTTAAAAGACGTACATATAAAAGAACCCTA [XGTACX_site8940] — within error, 11.5 ± 0.88
- ATTAAATCCGCACGCACACACACATATTAATAAAAA [CACACA_site3992] — within error, 10.6 ± 0.41
- TAAAAAAGAAAATATATACACACCAAAAAAAAAAAA [CACACA_site3146] — lower, 9.81 ± 0.24
- ATTCCTTGGTTGTATAGTACTTTGGTTAAACATAAA [XGTACX_site6967] — within error, 11 ± 0.67
- CAATATTTGTTATGGGTGCAAACCGCATATATATAA [GTGCAC_site9543] — within error, 10.4 ± 0.18
- TTATTTTTTAAAAGTAGTACAAATTTTTATAGAAAA [XGTACX_site7407] — within error, 11.5 ± 0.95
- TATTATTTGAGTAGTTGTACTCATTAATATATAAAA [XGTACX_site3468] — within error, 11.4 ± 1.1
- AATGTGCACACGCGTACACACAAAAAAAGAAAAAAA [CACACA_site7031] — within error, 11.7 ± 1.1
- TATTAATTTCACCTTTCACATATGGAAAAAAAAAAA [CACACA_negctrl_site1243] — within error, 10.1 ± 0.37
- CAAAATATTTATATCACACATATAAATAAAAATAAA [CACACA_site6028] — lower, 9.9 ± 0.18
- ATGTTTATTTATTTATGTACTTATATATTTATATAT [XGTACX_site7924] — within error, 11.3 ± 0.91
- AATAAAAATAAAAATTGTACACTTTTTTAATATTTA [XGTACX_site892] — within error, 11.3 ± 0.72
- TTTCCAAATACAACTACACACAAACAAAAATTATAT [CACACA_site4641] — within error, 10.2 ± 0.23
